Among all 420,000 compounds or so, about 64,000 (15%) were called active. The shares of active, inactive and inconclusive entries below differ from those in the screen. The call rests on the fitted dose curve; in most records, active means well fitted inhibition curve with a large enough effect; inconclusive means small, poorly fitted or top-dose-only effect; inactive means flat fitted curve, though single readings scatter. Potencies of inconclusive entries are left out as doubtful fits.
Experiment: qHTS for Inhibitors of human tyrosyl-DNA phosphodiesterase 1 (TDP1): qHTS in cells in absence of CPT; further: nearly all actives have a fitted effect of over 55% in size
Settings: DT40 Tdp1-/- hTDP1 cells, no CPT, ATP luminescence, 48 h; activity change, negative = growth inhibition: at 46.2 µM (top of the series)
Outline: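 Growth of hTDP1-complemented DT40 Tdp1-knockout cells is measured by ATP luminescence after at least 48 hr compound exposure at 37 °C, with DMSO substituting for the 20 nM CPT used in the parallel screen.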
With `COc1ccccc1-n1nnnc1SCC(=O)Nc1ccccn1` the Potency was “inactive”.
In the case of `CCCCCCCCCN(CCCCCCCCC)c1ccc(/C=C/c2ccnc3ccccc23)cc1`, the Potency is reported as “inactive”.
In the case of `CCOC(=O)c1sc(NC(=O)CSc2ncn(-c3ccccc3)n2)nc1C`, the activity change, negative = growth inhibition is reported as inconclusive: -35.9% [inhibitor].
For `CCC1=Nc2cc(C(=O)NCCc3ccc(OC)c(OC)c3)ccc2Sc2ccccc21`, the Potency was active: 23.1 µM.
In the case of `COCCCN1C(=O)C(CC(=O)NCCc2ccccn2)CC(C(=O)N2CCCCCC2)=C1C` (centres undefined), the Potency is reported as “inactive”.
For `Cn1nc(C(F)(F)F)c(C(=O)Nc2ccc(F)cc2F)c1Sc1cccc(C(F)(F)F)c1`, the Potency was inconclusive [inhibitor, single point].
For `Cn1cnnc1Sc1ccc(C(=O)NCCC23CC4CC(CC(C4)C2)C3)cc1[N+](=O)[O-]`, the Potency was inconclusive [inhibitor, single point].
In the case of `NNC(=O)C1CCCn2c1nc1sc3c(c1c2=O)CCCC3` (centres undefined), the Potency is reported as “inactive”.
In the case of `CCCCN(CCCC)CCNC(=O)Cn1nc(CC)n2c(cc3sccc32)c1=O`, the Potency is reported as inconclusive [inhibitor, single point].
In the case of `O=C1NC[C@H](CCCCN2CCN(Cc3ccccc3)C(=O)C2=O)N(CCc2ccccc2)C1=O`, the Potency is reported as “inactive”.
For `c1ccc(-c2cc(-c3ccccc3)on2)cc1`, the Potency was inconclusive [inhibitor, single point].
With `Cc1nc(CSc2ccc(Br)cc2)cs1` the Potency was “inactive”.
For `CC(=O)c1cccc(NC(=O)CSc2nc3c(c(=O)[nH]2)CCC3)c1`, the Potency was “inactive”.
With `CC(=O)Nc1ccc(N/C=C/C(=O)c2ccco2)cc1` the Potency was “inactive”.
With `COc1ccc(OC)c(S(=O)(=O)N(C)CC(=O)Nc2ccc3c(c2)OCCO3)c1` the Potency was inconclusive [inhibitor, single point].
In the case of `c1ccc(CN2CCN(c3nc(N4CCOCC4)c4ccccc4n3)CC2)cc1`, the Potency is reported as inconclusive [inhibitor, single point].
For `COc1ccc(OC)c(NC(=O)Cc2csc(NC(=O)Nc3ccccc3OC)n2)c1`, the Potency was active: 20.6 µM.
For `Cc1ccc2c(C)c(C(=O)N3CCC(O)(c4ccccc4)CC3)oc2c1C`, the Potency was inconclusive [inhibitor, single point].
In the case of `O=C(Cn1c(=O)n(-c2ccc(F)cc2)c(=O)c2sc3ccccc3c21)NC1CCCC1`, the Potency is reported as inconclusive [inhibitor, single point].
With `COc1ccc(N=C2SC(CC(=O)Nc3ccc(F)cc3)C(=O)N2Cc2ccco2)cc1` (centres undefined) the Potency was inconclusive [inhibitor, single point].
For `Cn1c2ccccc2c2cc(/C=N/NC(=O)c3ccccc3F)ccc21`, the Potency was inconclusive [inhibitor, single point].
With `COc1ccc(/C=C\C(=O)NCC(=O)N/N=C/c2ccc(O)cc2O)cc1` the Potency was “inactive”.
With `COc1ccccc1C(O)P(=O)(OC1CCCCC1)OC1CCCCC1` (centres undefined) the Potency was inconclusive [inhibitor, partial curve].
With `O=C(CSc1nnc(-c2ccccc2)c(-c2ccccc2)n1)NCC1CCCO1` (centres undefined) the Potency was inconclusive [inhibitor, partial curve, poor fit].
For `CCC(=O)Nc1sc(Cc2ccccc2)c(C)c1C(N)=O`, the Potency was inconclusive [inhibitor, single point].
With `O=C(Nc1ccc2oc(-c3ccc(F)cc3)nc2c1)c1ccccc1F` the Potency was inconclusive [inhibitor, partial curve].
For `CC(C)(C)NC(=O)CSc1nc2cccnc2n1C1CCCCC1`, the Potency was inconclusive [inhibitor, single point].
In the case of `CCOC(=O)C1=C(OCc2ccc(Cl)cc2)C2C=C(C)C=CC2N=C1` (centres undefined), the Potency is reported as “inactive”.
For `CCN1CCN(c2nc3c(c(=O)[nH]c(=O)n3C)n2CCCSc2ncccn2)CC1`, the Potency was “inactive”.
For `Cn1c(=O)[nH]c(=O)c2c1nc(N1CCCCC1)n2CCSc1nc2ccccc2o1`, the Potency was “inactive”.
For `COc1ccccc1NC(=O)c1cc2cc(Br)ccc2oc1=N`, the Potency was inconclusive [inhibitor, single point].
For `CC(C)CCSc1nc2c(c(=O)[nH]c(=O)n2C)n1CCc1ccccc1`, the Potency was inconclusive [inhibitor, partial curve, poor fit].
In the case of `COCCCC1CCN(C(=O)c2cc(COc3cc(C)ccc3C)on2)CC1`, the Potency is reported as inconclusive [inhibitor, partial curve, poor fit].
In the case of `CO/N=C/C(C#N)=C/c1cc(C(=O)c2ccccc2)cn1C`, the Potency is reported as active: 20.6 µM.
For `CCCS(=O)(=O)N1CCCC(C(=O)NCCN2CCC(Cc3ccccc3)CC2)C1` (centres undefined), the Potency was inconclusive [inhibitor, single point].
In the case of `COc1ccc(OC)c(NC(=O)c2ccc(CSc3nnc(C)s3)cc2)c1`, the Potency is reported as inconclusive [inhibitor, single point].
With `Nc1nc(NCCO)nc(N2CCCCCC2)c1[N+](=O)[O-]` the Potency was “inactive”.
With `CCOC(=O)c1ccc(CNC(=O)c2cc(C(C)(C)C)oc2C)o1` the Potency was inconclusive [inhibitor, single point].
In the case of `CCc1nc2ccccc2n2c(-c3ccc(C)cc3)c3c(=O)n(C)c(=O)n(C)c3c12`, the Potency is reported as inconclusive [inhibitor, partial curve].
For `COc1cc(OC)cc(-c2c(-c3cccs3)c3cc(-c4ccc(OC)nc4)ccc3n2C)c1`, the Potency was inconclusive [inhibitor, single point].
With `CCc1nnc(NC(=O)CSc2nc(N)c(NC(=O)c3ccc(OC)cc3)c(=O)[nH]2)s1` the Potency was “inactive”.
For `O=C(CCCCC(=O)Sc1ccccc1)Sc1ccccc1`, the Potency was inconclusive [inhibitor, partial curve].
For `Oc1ccc(N2CCN(C(c3ccc(Cl)cc3)c3nnnn3Cc3ccc(F)cc3)CC2)cc1` (centres undefined), the Potency was inconclusive [inhibitor, single point].
With `COc1cc(C(=O)O)c2ccccc2n1` the Potency was “inactive”.
With `Cc1cc(C)cc(NC(=O)C2CCCN(S(=O)(=O)c3cccc4nsnc34)C2)c1` (centres undefined) the Potency was active: 16.4 µM.
With `O=[n+]1c2c(n([O-])c3cc(F)c(F)cc31)CCCC2` the Potency was inconclusive [inhibitor, single point].
With `COc1ccccc1NCC(=O)N/N=C(\C)c1cccs1` the Potency was inconclusive [inhibitor, single point].
For `Cc1cc(OCC(=O)NC(Cc2ccc(Cl)cc2)C(=O)O)c2c(C)c(C)c(=O)oc2c1` (centres undefined), the Potency was inconclusive [inhibitor, full curve, poor fit].
With `Cc1ccccc1-n1c(-c2ccc(Cl)cc2)cnc1SCC(=O)NC1CCS(=O)(=O)C1` (centres undefined) the Potency was inconclusive [inhibitor, partial curve].
For `Cn1cc(CNC(=O)c2cc(COc3ccc4c(c3)CCCC4)on2)cn1`, the Potency was active: 14.6 µM.
In the case of `Cc1ccc(OCC(=O)N/N=C\c2cn(Cc3ccccc3)c3ccccc23)cc1C`, the Potency is reported as inconclusive [inhibitor, single point].
With `O=C(c1ccc(-c2ccccc2Cl)o1)N1CCCCCCC1` the Potency was active: 23.1 µM.
For `Cc1cc(Cl)ccc1OCC(=O)NNC(=O)C1CCN(c2ncnc3sc(C)c(C)c23)CC1`, the Potency was inconclusive [inhibitor, single point].
With `Cc1cccc(N2CCN(C(c3ccccc3)c3nnc(-c4ccccc4F)o3)CC2)c1C` (centres undefined) the Potency was active: 23.1 µM.
With `COCCn1c(=O)[nH]c2cc(C(=O)N3CCN(c4cc(C)ccc4C)CC3)ccc2c1=O` the Potency was inconclusive [inhibitor, single point].
For `COc1cc(OC)c2c(-c3ccccc3)cc(=O)oc2c1C(CC(=O)N1CCN(c2ccccc2)CC1)c1ccc(N(C)C)cc1` (centres undefined), the Potency was inconclusive [inhibitor, single point].
In the case of `COc1ccc(CSc2nc3ccncc3n2CC(=O)Nc2cc(C)cc(C)c2)cc1`, the Potency is reported as active: 16.4 µM.
With `CC(C)c1nnc(NC(=O)c2cccc(NC(=O)C(F)(F)F)c2)s1` the Potency was “inactive”.
For `O=C(c1ccc(Cl)c(Cl)c1)N1CCC(=O)N(C(COCc2cccc(Cl)c2)Cc2ccccc2)CC1` (centres undefined), the Potency was inconclusive [inhibitor, full curve, poor fit].
For `Cc1ccc(C)c(S(=O)(=O)N2CCN(C(=O)CSc3ccccc3F)CC2)c1`, the Potency was inconclusive [inhibitor, single point].
In the case of `COCCN(C(=O)c1ccc(OC2CCN(S(=O)(=O)N(C)C)CC2)cc1)C(C)C`, the Potency is reported as active: 13 µM.
In the case of `CCOC(=O)CCC(NC(=O)c1ccc(CNc2nc3cc(C(F)(F)F)ccc3nc2C(=O)OCC)cc1)C(=O)OCC` (centres undefined), the Potency is reported as inconclusive [inhibitor, single point].
For `Cc1ccc(C(=O)NC(=C(Cl)Cl)S(=O)(=O)c2ccccc2)cc1`, the Potency was active: 20.6 µM.
For `Cc1cc(C(=O)NC2CCCc3c2cnn3-c2ccc(C)c(C)c2)no1` (centres undefined), the Potency was inconclusive [inhibitor, partial curve].
For `CCOC(=O)C1=C(C)NC(=S)NC1c1ccc(OCC(=O)N2CCCCCC2)cc1` (centres undefined), the Potency was “inactive”.
With `NC(=O)C1CCN(C(=O)c2ccc3c(c2)N(Cc2cccc(Cl)c2)C(=O)c2ccccc2S3=O)CC1` (centres undefined) the Potency was “inactive”.
In the case of `O=C(COC(=O)[C@@H]1CCCN1S(=O)(=O)c1ccccc1F)NCc1ccc2c(c1)OCO2`, the Potency is reported as “inactive”.
With `C/C(=N/NS(=O)(=O)c1ccc(C)cc1)c1c(O)c2ccccc2oc1=O` the Potency was inconclusive [inhibitor, single point].
With `COc1ccc(OC)c(CNC(=O)CCSCc2ccc(F)cc2Cl)c1` the Potency was inconclusive [inhibitor, single point].

— PubChem BioAssay AID686978 (National Center for Advancing Translational Sciences (NCATS), 2013)
On the % scale 0 is the no-effect control and ±100 the full control effect; potency means the concentration at half of the fitted maximal effect; tags describe the fitted curve by direction and shape.
